The supplement of paper PMC4967469

Assays:
Assay in all cases: Viability of human cancer cell lines after 72 h of drug (GDSC screen)
SGC0946 = compound: CC(C)N(CCCNC(=O)Nc1ccc(C(C)(C)C)cc1)C[C@H]1O[C@@H](n2cc(Br)c3c(N)ncnc32)[C@H](O)[C@@H]1O [SGC0946]; conditions: top dose 0.5 µM; top dose inferred
Protocol: (§1)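 Human cancer cell lines in 384-well plates, medium with 10% serum, drug for 72 h over a 256-fold dose range (nine 2-fold or five 4-fold steps up to the top dose). Adherent lines were fixed and stained with the nucleic acid dye Syto60, suspension lines read with resazurin; signal relative to control wells, capped at 0 and 100%. One two-parameter sigmoid per drug and line, fitted in a mixed model over all curves with the slope shared within a line.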

Lenalidomide = compound: Nc1cccc2c1CN(C1CCC(=O)NC1=O)C2=O [Lenalidomide]; conditions: top dose 5 µM; top dose inferred
Protocol: as §1

Bryostatin 1 = compound: CCC/C=C/C=C/C(=O)O[C@H]1/C(=C/C(=O)OC)C[C@H]2C[C@H]([C@@H](C)O)OC(=O)C[C@H](O)C[C@@H]3C[C@H](OC(C)=O)C(C)(C)[C@](O)(C[C@@H]4C/C(=C/C(=O)OC)C[C@H](/C=C/C(C)(C)[C@]1(O)O2)O4)O3 [Bryostatin 1]; conditions: top dose 0.008 µM; top dose inferred
Protocol: as §1

GW-2580 = compound: COc1ccc(COc2ccc(Cc3cnc(N)nc3N)cc2OC)cc1 [GW-2580]; conditions: top dose 20 µM; top dose inferred
Protocol: as §1

Row | Cell Line | AUC (SGC0946) | pIC50 (SGC0946) | AUC (Lenalidomide) | pIC50 (Lenalidomide) | AUC (Bryostatin 1) | pIC50 (Bryostatin 1) | AUC (GW-2580) | pIC50 (GW-2580)
1 | CAL-85-1 (breast, adherent) | 0.974 | < 6.30 | 0.944 | < 5.30 | 0.906 | < 8.10 | 0.976 | < 4.70
2 | CAL-78 (chondrosarcoma, adherent) | 0.985 | < 6.30 | 0.986 | < 5.30 | 0.964 | < 8.10 | 0.983 | < 4.70
3 | TE-6 (oesophagus, adherent) | 0.984 | < 6.30 | 0.986 | < 5.30 | 0.986 | < 8.10 | 0.986 | < 4.70
4 | LS-180 (large intestine, adherent) | 0.983 | < 6.30 | 0.982 | < 5.30 | 0.983 | < 8.10 | 0.982 | < 4.70
5 | HCC1937 (breast, adherent) | 0.97 | < 6.30 | 0.952 | < 5.30 | 0.977 | < 8.10 | 0.985 | < 4.70
6 | OAW-42 (ovary, adherent) | 0.984 | < 6.30 | 0.986 | < 5.30 | 0.982 | < 8.10 | 0.967 | < 4.70
7 | SJRH30 (rhabdomyosarcoma, adherent) | 0.981 | < 6.30 | 0.985 | < 5.30 | 0.966 | < 8.10 | 0.986 | < 4.70
8 | AsPC-1 (pancreas, adherent) | 0.971 | < 6.30 | 0.972 | < 5.30 | 0.933 | < 8.10 | 0.972 | < 4.70
9 | JVM-3 (lymphoid neoplasm, suspension) | 0.976 | < 6.30 | 0.978 | < 5.30 | 0.987 | < 8.10 | 0.986 | < 4.70
10 | Mewo (melanoma, adherent) | 0.982 | < 6.30 | 0.947 | < 5.30 | 0.875 | < 8.10 | 0.975 | < 4.70
11 | BB30-HNC (head and neck, adherent) | 0.984 | < 6.30 | 0.922 | < 5.30 | 0.955 | < 8.10 | 0.984 | < 4.70
12 | CHSA0011 (chondrosarcoma, adherent) | 0.971 | < 6.30 | 0.978 | < 5.30 | 0.98 | < 8.10 | 0.97 | < 4.70
13 | CHSA0108 (chondrosarcoma, adherent) | 0.981 | < 6.30 | 0.981 | < 5.30 | 0.98 | < 8.10 | 0.982 | < 4.70
14 | NCI-H2405 (lung adenocarcinoma, adherent) | 0.949 | < 6.30 | 0.973 | < 5.30 | 0.979 | < 8.10 | 0.975 | < 4.70
15 | C3A (liver, adherent) | 0.987 | < 6.30 | 0.988 | < 5.30 | 0.915 | < 8.10 | 0.988 | < 4.70
16 | OVKATE (ovary, adherent) | 0.975 | < 6.30 | 0.979 | < 5.30 | 0.97 | < 8.10 | 0.979 | < 4.70
17 | CAL-27 (head and neck, adherent) | 0.984 | < 6.30 | 0.975 | < 5.30 | 0.972 | < 8.10 | 0.984 | < 4.70
18 | TGBC1TKB (biliary tract, adherent) | 0.988 | < 6.30 | 0.986 | < 5.30 | 0.988 | < 8.10 | 0.987 | < 4.70
19 | JEG-3 (urogenital system, adherent) | 0.99 | < 6.30 | 0.964 | < 5.30 | 0.946 | < 8.10 | 0.989 | < 4.70
20 | LN-405 (glioma, adherent) | 0.982 | < 6.30 | 0.976 | < 5.30 | 0.866 | < 8.10 | 0.955 | < 4.70

Row | Cell Line | AUC (SGC0946) | pIC50 (SGC0946) | AUC (Lenalidomide) | pIC50 (Lenalidomide) | AUC (Bryostatin 1) | pIC50 (Bryostatin 1) | AUC (GW-2580) | pIC50 (GW-2580)
21 | L-428 (Hodgkin lymphoma, suspension) | 0.989 | < 6.30 | 0.989 | < 5.30 | 0.987 | < 8.10 | 0.991 | < 4.70
22 | SNB75 (glioma, adherent) | 0.976 | < 6.30 | 0.976 | < 5.30 | 0.948 | < 8.10 | 0.979 | < 4.70
23 | LCLC-97TM1 (large cell lung carcinoma, adherent) | 0.957 | < 6.30 | 0.981 | < 5.30 | 0.967 | < 8.10 | 0.983 | < 4.70
24 | IMR-5 (neuroblastoma, adherent) | 0.991 | < 6.30 | 0.962 | < 5.30 | 0.986 | < 8.10 | 0.986 | < 4.70
25 | HCC2218 (breast, suspension) | 0.98 | < 6.30 | 0.977 | < 5.30 | 0.983 | < 8.10 | 0.922 | < 4.70
26 | KARPAS-299 (anaplastic large cell lymphoma, suspension) | 0.986 | < 6.30 | 0.978 | < 5.30 | 0.992 | < 8.10 | 0.988 | < 4.70
27 | CS1 (bone, adherent) | 0.977 | < 6.30 | 0.984 | < 5.30 | 0.982 | < 8.10 | 0.958 | < 4.70
28 | FTC-133 (thyroid, adherent) | 0.985 | < 6.30 | 0.983 | < 5.30 | 0.925 | < 8.10 | 0.98 | < 4.70
29 | P30-OHK (lymphoblastic leukaemia, suspension) | 0.98 | < 6.30 | 0.945 | < 5.30 | 0.874 | 8.25 | 0.99 | < 4.70
30 | OVMIU (ovary, adherent) | 0.978 | < 6.30 | 0.981 | < 5.30 | 0.972 | < 8.10 | 0.974 | < 4.70
31 | MHH-PREB-1 (B-cell leukaemia, suspension) | 0.988 | < 6.30 | 0.983 | < 5.30 | 0.975 | < 8.10 | 0.977 | < 4.70
32 | OVCAR-5 (ovary, adherent) | 0.98 | < 6.30 | 0.982 | < 5.30 | 0.98 | < 8.10 | 0.982 | < 4.70
33 | NCI-H2452 (mesothelioma, adherent) | 0.982 | < 6.30 | 0.984 | < 5.30 | 0.948 | < 8.10 | 0.97 | < 4.70
34 | EPLC-272H (lung squamous cell carcinoma, adherent) | 0.979 | < 6.30 | 0.983 | < 5.30 | 0.979 | < 8.10 | 0.956 | < 4.70
35 | KP-3 (pancreas, adherent) | 0.952 | < 6.30 | 0.984 | < 5.30 | 0.982 | < 8.10 | 0.984 | < 4.70
36 | MES-SA (uterus, adherent) | 0.991 | < 6.30 | 0.992 | < 5.30 | 0.987 | < 8.10 | 0.992 | < 4.70
37 | JHH-1 (liver, adherent) | 0.982 | < 6.30 | 0.955 | < 5.30 | 0.982 | < 8.10 | 0.985 | < 4.70
38 | MEL-JUSO (melanoma, adherent) | 0.982 | < 6.30 | 0.957 | < 5.30 | 0.981 | < 8.10 | 0.978 | < 4.70
39 | HCC-78 (lung adenocarcinoma, adherent) | 0.955 | < 6.30 | 0.981 | < 5.30 | 0.967 | < 8.10 | 0.961 | < 4.70
40 | NCI-H1781 (lung adenocarcinoma, adherent) | 0.988 | < 6.30 | 0.989 | < 5.30 | 0.985 | < 8.10 | 0.989 | < 4.70

Row | Cell Line | AUC (SGC0946) | pIC50 (SGC0946) | AUC (Lenalidomide) | pIC50 (Lenalidomide) | AUC (Bryostatin 1) | pIC50 (Bryostatin 1) | AUC (GW-2580) | pIC50 (GW-2580)
41 | SCH (stomach, adherent) | 0.983 | < 6.30 | 0.988 | < 5.30 | 0.973 | < 8.10 | 0.987 | < 4.70
42 | CAL-72 (osteosarcoma, adherent) | 0.982 | < 6.30 | 0.98 | < 5.30 | 0.945 | < 8.10 | 0.967 | < 4.70
43 | SNU-449 (liver, adherent) | 0.985 | < 6.30 | 0.986 | < 5.30 | 0.964 | < 8.10 | 0.982 | < 4.70
44 | NB5 (neuroblastoma, adherent) | 0.985 | < 6.30 | 0.986 | < 5.30 | 0.983 | < 8.10 | 0.986 | < 4.70
45 | A101D (melanoma, adherent) | 0.967 | < 6.30 | 0.942 | < 5.30 | 0.922 | < 8.10 | 0.981 | < 4.70
46 | EGI-1 (biliary tract, adherent) | 0.98 | < 6.30 | 0.953 | < 5.30 | 0.964 | < 8.10 | 0.975 | < 4.70
47 | RC-K8 (B-cell lymphoma, suspension) | 0.993 | < 6.30 | 0.99 | < 5.30 | 0.993 | < 8.10 | 0.992 | < 4.70
48 | BICR22 (head and neck, adherent) | 0.981 | < 6.30 | 0.942 | < 5.30 | 0.948 | < 8.10 | 0.983 | < 4.70
49 | T47D (breast, adherent) | 0.974 | < 6.30 | 0.977 | < 5.30 | 0.929 | < 8.10 | 0.977 | < 4.70
50 | Becker (glioma, adherent) | 0.977 | < 6.30 | 0.952 | < 5.30 | 0.983 | < 8.10 | 0.972 | < 4.70
51 | KYSE-50 (oesophagus, adherent) | 0.989 | < 6.30 | 0.99 | < 5.30 | 0.925 | < 8.10 | 0.961 | < 4.70
52 | FU-OV-1 (ovary, adherent) | 0.978 | < 6.30 | 0.978 | < 5.30 | 0.982 | < 8.10 | 0.982 | < 4.70
53 | SW626 (ovary, adherent) | 0.981 | < 6.30 | 0.983 | < 5.30 | 0.953 | < 8.10 | 0.965 | < 4.70
54 | SU8686 (pancreas, adherent) | 0.948 | < 6.30 | 0.983 | < 5.30 | 0.986 | < 8.10 | 0.979 | < 4.70
55 | KE-37 (lymphoblastic leukaemia, suspension) | 0.994 | < 6.30 | 0.991 | < 5.30 | 0.987 | < 8.10 | 0.994 | < 4.70
56 | BT-20 (breast, adherent) | 0.977 | < 6.30 | 0.962 | < 5.30 | 0.971 | < 8.10 | 0.974 | < 4.70
57 | EJM (lymphoid neoplasm, semi-adherent) | 0.992 | < 6.30 | 0.992 | < 5.30 | 0.992 | < 8.10 | 0.992 | < 4.70
58 | EFM-192A (breast, adherent) | 0.984 | < 6.30 | 0.985 | < 5.30 | 0.808 | 8.33 | 0.985 | < 4.70
59 | HCC-44 (lung adenocarcinoma, adherent) | 0.985 | < 6.30 | 0.981 | < 5.30 | 0.904 | < 8.10 | 0.977 | < 4.70
60 | DK-MG (glioma, adherent) | 0.974 | < 6.30 | 0.974 | < 5.30 | 0.924 | < 8.10 | 0.978 | < 4.70

pIC50: −log10 of the molar value. The IC50 comes from the fitted curve, where viability falls to half of the control; where the fit passes the top or lowest dose, that dose stands as a limit. AUC sums up the same curve from the lowest dose to the 256-fold higher top dose; it is 1 without any effect and falls as sensitivity rises. The top dose, if marked as inferred, comes from the curve model; the source does not state it.
